Results on 73 sequences are retold here after article PMC10726135.

The list shows a part of the results. At the low end of the ranking the order means little. The protein was read in a cell extract, so binding may be indirect.

The target in this assay is T1, HNF4alpha8 (COS-7 nuclear extract) (UniProt P41235-5).
T1 sequence: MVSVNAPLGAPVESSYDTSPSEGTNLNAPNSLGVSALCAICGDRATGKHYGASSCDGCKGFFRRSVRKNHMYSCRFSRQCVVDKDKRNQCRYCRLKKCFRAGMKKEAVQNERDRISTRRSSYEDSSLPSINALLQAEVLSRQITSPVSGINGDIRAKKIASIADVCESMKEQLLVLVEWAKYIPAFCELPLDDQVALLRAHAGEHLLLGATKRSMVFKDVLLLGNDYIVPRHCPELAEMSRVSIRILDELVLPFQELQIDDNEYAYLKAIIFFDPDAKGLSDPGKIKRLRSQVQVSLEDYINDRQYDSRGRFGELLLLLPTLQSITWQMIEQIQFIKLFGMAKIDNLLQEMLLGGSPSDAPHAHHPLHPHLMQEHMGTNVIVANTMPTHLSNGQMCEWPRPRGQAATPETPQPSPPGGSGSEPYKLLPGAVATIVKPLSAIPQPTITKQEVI
The assay is described as follows: protein-binding microarray. Particulars: COS-7 nuclear extract on double-stranded Agilent 4x180k PBM; binding buffer, salt, pH and temperature not given; high values mean tight binding; double strand, one strand shown; sequences stand for … in …GCCTAGGGAGATTAGAGTATCGGTCGA
As for GGCTGTGTCGGTATAAGTTCTACATTCCCA, the binding signal (log2 normalized intensity) was -0.19.
In the case of CTCCAGGGCACTGCCCTTTGGAACCTGCCC, the binding signal (log2 normalized intensity) was found to be 6.57.
Next, AGGGTAGGAGAAGCTGGAAGGACAGCATTC: -1.29; TGAACACAGTTCGAACAGTTGGCCACCTTT: 2.13.
On to TGAAGTTGGATAACCTTCTGCTGGATGCCC, for which the binding signal (log2 normalized intensity) stood at 1.02.
The figure for AATCATGTAGCCAGATAAGAGCTATCAATG is -1.45; for GGGTTGGTATTACAAAGCAATCTACTTTTC it is -0.643; for CAGATTCCTGAGCCCAGATCCTCTAAATTC it is -1.33.
Next, CCTTTCCCCTAAAGGAGGCAAGGTCCAAAC: 4.36; CTAAAAAAATAGTTTCAACTTAACCCCAGT: 3.24; CCCTGCCTAAACAAGGCAGACTTGGATTTT: 0.308.
Next, TATGGCTGGGATATCAGGTATTGCCCAGTA: 0.921.
On to TATTGAGAAGAAACCTTTGCCCAACAGGAT, for which the binding signal (log2 normalized intensity) amounted to 2.13.
The figure for TCCGTGGTAACACACATTAGCTTCCCGGCT is -1.34; for CACGGTAGCATGCTCTCTTGTCAAGACCGA it is -1.23.
Next, CAGTTATCAGACAGAGGAATTCAGCAGGAT: -1.07.
The figure for TGACTAGATTTCTGTCTGTTTTCCCCTTCC is 2.64; for CATTTGAACCCAACCGTCCAGAGTCCACGT it is 4.68.
Consider CAACTGACATCTGGAAATGTTTGTAGGGAC, for which the binding signal (log2 normalized intensity) turned out to be 0.67.
As to CCATGGTAAGAACTACAGTTGACCTTTGAA, the binding signal (log2 normalized intensity) amounted to 8.15.
Next, CTGGGCAGGCGCCGACTGCCAGGAGGGGAC: -1.33; GCAACCACAGCCTCTGCATTTGCTCCCTGA: -0.299; ATCTTATCGCCTAGTACTCCTGCCCCTGTG: 2.3.
The figure for TAGGGCCCCCTGTGATTACTTCCACTCTTG is 0.851; for AGTAGGTTTACTAAAGGAAGGGAGGTGAGT it is -1.39.
With TTCATCCTCCCATACAGGATCGGTCACATT, the binding signal (log2 normalized intensity) is 1.74.
For the sequence ACTATCAGTGAAGAGCAAACAATCAGTGAA, the binding signal (log2 normalized intensity) was -1.31.
The figure for AATAGGCCCTCCCAGCCTATTAACCCCAAA is 5.39; for TTCAGCAAATATTGAATGTGTTACACCTGT it is 1.33; for CATATCTAGGATCACGCCATGAGTTGGGGA it is -0.161.
The figure for AAATCCCCGCCTTTGACACAGGCGACCTTC is 4.58.
Next, CCAGATTCCAGCCTCCTGCTCTGGGCTTTC: -1.27; GGAAAGGGGGTTTGCAACCTTTGATAACCT: 2.82; GGGTCCAAAGAACATTGCATTCCTTTGTTT: 2.18.
For AGGACTTCTAGAGTGAGCCATTTATCAGGG, the binding signal (log2 normalized intensity) was -1.31.
Next, AGCTTGGGTTCACATTCCAGCTCTGTGACT: -0.0998; CAATCTGGATTGTACTGTGTCTTGATCTTG: 1.91; GACAAAGGCCGCGCCCGCCCGCGCCGGCCT: -1.38.
The figure for ATGCTAAAGTCTACATTCTAGATGACCCCT is 6.17; for GACATTCCTTCAGCGTGAACTTTGACATGA it is 6.23; for ACAGCACTTTGGCGTGCTGTGTACTTTGAA it is 4.92.
The figure for TTCTTGACCTGCGTAGCCCAAAGGTCAGTC is 5.04; for CTTCATCAATCAGCCTGATACCAGATCCTT it is -0.921; for GGAAGACTTCATTCAGGTAGCAGGCCTCAG it is -1.31.
For CCCACCAGGGGGAGGCTCAGAGTCTGTGGA, the binding signal (log2 normalized intensity) was -1.32.
The figure for CAGACTTTCCCCCTATTTCCCTCTGTGCCC is 3.18.
The figure for AGCTGGGAGACCACTGGTGTAAGCTCTGGA is -1.24.
For ATTACTCCCACCGTGTGTGCACTTTAAATT, the binding signal (log2 normalized intensity) amounted to 1.93.
The figure for GACAAACCAGTCCCATCTGTGCTCATTATT is 0.687; for TCCTGGGTCCACCGTGCGCAAACACACCCA it is -1.23.
Next, CCCCTTTGAAGTCTGCCCTCCATGTAACCC: 3.79.
Next, TTAAATCCTCGAAGAGTTTGAACTATGTAC: 4.71.
With TGGGATGAGAGAGCCCCTGTGATACAACGG, the binding signal (log2 normalized intensity) is -1.34.
The figure for CAGAGAAAGAGAGAGTTAGTTCTGCAAACA is -1.33; for TGGATTGTGTTGCACTGTTTGCATAAAGTT it is 1.66; for GCTGCAAAATTTGAACAAAAAAAGAAGAGC it is -1.28.
The figure for TGTGCACACTTAGAAAATGCCCTCAATCAA is 1.86; for CAAGGGTCAATCCTCTCTTTGGAATGTGCA it is 2.46; for AGTCCTGACCTTGGACTCTGCCCTTGGCCT it is 6.67.
The figure for TGTTACTTATAAATAATCTCAACCATACAA is -1.22.
On to TGATAGCCATCTGGTGGACTTTGCTCTGCT, for which the binding signal (log2 normalized intensity) amounted to 8.15.
Next, CCTAACCACCTGACCACAACACACAAGAAC: -1.24.
The figure for TCTCACTGACTCACGGCAGCTTGTACCCTT is 3.01; for AGGGTGTGTAAAACAGGTGAAAGATAAGGG it is -1.42; for GAAGTGGGGGTGAGTCAGTCCCCAGCAATT it is 1.11.
The figure for TCTGGTCATGGCCCTGAGGGAGGAGAGAGG is -1.36; for CTTCATGGACTCCTCTTATCTTCAGGTATC it is 0.961.
Take TAAGAAAATGAAAACACAGCTCACCACCTA: the binding signal (log2 normalized intensity) is -1.24.
Consider CTATTAGTGGTTAAGTTTTCGAGGAGTCAA, for which the binding signal (log2 normalized intensity) stood at 0.915.
Next, CGCCACAGCACCACCTGCTGGTCAGGAGAC: -1.38; GATGGAGATCATCCTGCAGTTCCTGATCTT: -1.07; CAGATAATTCTTTGCTGTGGTAGGCTGTCC: 1.98.
Next, AAAGGCAGGCAGTGGAGGGCTCCCTTTAGT: -1.36.
